# Source: PubChem BioAssay (Tox21)
# Values joined by “and” are separate entries in the source; they are usually repeats but may differ in a detail not shown here. Equal entries are not always repeated. The inconclusive results got no clear call from the source; some entries with a clear call stand among them for comparison. For some assays here: A potency beside an inconclusive call is a rough fit, not a confirmed value. Some structures have more than one record in an assay (separate samples or runs), and their calls can disagree. Active and inactive are the calls of the source. The call rests on the fitted dose curve; in most records, active means well fitted curve in the direction sought with a large enough effect in the repeat runs; inconclusive means weak or mixed curves; inactive means no such curve, though single readings can be large; an effect the other way counts as inactive or inconclusive.
# Experiments:
# [1] = A CellTox Green Cytotoxicity Assay to monitor cytotoxicity in HepG2 cells - 32 hour (AID 1224883); further: nearly all actives have a fitted effect of over 50% in size
# Outline: (§1)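 HepG2 cells were seeded together with the CellTox Green dye at 600 cells/well, left 5 h at 37 C/5% CO2, then given compounds in DMSO. Fluorescence from dye bound to dead-cell DNA was read repeatedly over 40 h of treatment at 37 C.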
# [2] = qHTS RealTime-Glo MT Cell Viability Assay in HepG2 cells - 16 hour (AID 1224885); further: nearly all actives have a fitted effect of over 50% in size
# Outline: (§2)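 Cells + NanoLuc/prosubstrate dispensed (600 cells/well) → 5 h at 37 C/5% CO2 → compounds in DMSO transferred → 40 h incubation at 37 C, luminescence read at 0, 8, 16, 24, 32, 40 h.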
# [3] = qHTS RealTime-Glo MT Cell Viability Assay in HEK293 cells - 8 hour (AID 1224887); further: nearly all actives have a fitted effect of over 50% in size
# Outline: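 HEK293 cells mixed with RealTime-Glo reagents (NanoLuc plus cell-permeant prosubstrate) at 600 cells/well, preincubated 5 h at 37 C/5% CO2, then given 23 nL compound in DMSO. Nonlytic luminescence from viable cells was read at 0, 8, 16, 24, 32 and 40 h.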
# [4] = A CellTox Green Cytotoxicity Assay to monitor cytotoxicity in HEK293 cells - 8 hour (AID 1224884); further: nearly all actives have a fitted effect of over 35% in size
# Outline: (§3)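 HEK293 cells premixed with CellTox Green dye were seeded at 600 cells/well and left 5 h at 37 C/5% CO2 before pin transfer of 23 nL compound in DMSO. Fluorescence from dye bound to dead-cell DNA was read during 40 h treatment.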
# [5] = qHTS RealTime-Glo MT Cell Viability Assay in HEK293 cells - 24 hour (AID 1224886); further: nearly all actives have a fitted effect of over 50% in size
# Outline: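 Tox21 10K qHTS, HEK293, 600 cells/well, RealTime-Glo reagent co-dispensed with cells; 5 h preincubation, compound by pintool, 37 C, luminescence at 0–40 h.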
# [6] = A CellTox Green Cytotoxicity Assay to monitor cytotoxicity in HEK293 cells - 16 hour (AID 1224888); further: nearly all actives have a fitted effect of over 35% in size
# Outline: as §3
# [7] = A CellTox Green Cytotoxicity Assay to monitor cytotoxicity in HepG2 cells - 8 hour (AID 1224890); further: nearly all actives have a fitted effect of over 45% in size
# Outline: as §1
# [8] = qHTS RealTime-Glo MT Cell Viability Assay in HepG2 cells - 0 hour (AID 1224889); further: nearly all actives have a fitted effect of over 50% in size
# Outline: as §2
# [9] = qHTS assay to identify small molecule antagonists of the estrogen receptor alpha (ER-alpha) signaling pathway using the BG1 cell line in the presence of 0.1 nM 17-beta-estradiol - cell viability counter screen (AID 1259241); further: nearly all actives have a fitted effect of over 40% in size
# Outline: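 VM7Luc4E2 cells (endogenous full-length ER-alpha, 4xERE-luciferase), cultured 5 days in charcoal-stripped serum, exposed to compounds with 0.1 nM 17beta-estradiol (final) for 22 hr at 37C. Viability read in same wells as live-cell protease fluorescence after 30 min.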
# Potency means the concentration at half of the fitted maximal effect; tags describe the fitted curve by direction and shape.
smiles,measurement,setting,value
CCN(CC)c1ccc(N)cc1,Potency,[1],"inconclusive: 56.4 µM [activator, single point]"
same,Potency,[2],active: 50.3 µM
same,Potency,[3],active: 20 µM
CCCN(CCC)c1c([N+](=O)[O-])cc(C(F)(F)F)c(N)c1[N+](=O)[O-],Potency,[1],active: 54.8 µM
same,Potency,[4],"inconclusive: 54.8 µM [activator, single point]"
same,Potency,[5],active: 19.4 µM
same,Potency,[6],"inconclusive: 54.8 µM [activator, single point]"
same,Potency,[7],"inconclusive: 54.8 µM [activator, single point]"
[Cl][Bi]([Cl])([c]1ccccc1)([c]1ccccc1)[c]1ccccc1,Potency,[1],active: 6.13 µM
same,Potency,[4],active: 43.4 µM
same,Potency,[8],"inconclusive: 19.4 µM [cytotoxic, partial curve]"
same,Potency,[9],active: 12.1 µM
CCC(C)OC(=O)c1ccc(O)cc1 (configuration not stated),Potency,[1],"inconclusive: 62 µM [activator, partial curve, poor fit] and inconclusive: 54.9 µM [activator, single point]"
same,Potency,[5],"inconclusive: 55.3 µM [cytotoxic, partial curve] and inconclusive: 43.6 µM [cytotoxic, partial curve]"
same,Potency,[7],"inconclusive: 54.9 µM [activator, single point]"
COc1cc([C@@H]2c3cc4c(cc3[C@H](O)[C@H]3COC(=O)[C@H]23)OCO4)cc(OC)c1OC,Potency,[1],"inconclusive: 19.5 µM [activator, partial curve, poor fit]"
same,Potency,[5],"inconclusive: 38.9 nM [cytotoxic, full curve] and inconclusive: 47.7 nM [cytotoxic, full curve]"
Nc1ccc2c(c1)CN1C(=O)c3ccccc3C1=N2,Potency,[1],active: 10.4 µM
same,Potency,[5],active: 9.28 µM
same,Potency,[3],"inconclusive: 4.65 µM [cytotoxic, partial curve]"
same,Potency,[7],active: 10.4 µM
same,Potency,[9],"inconclusive: 13 µM [rising, partial curve]"
CC(C)(C)CC(C)(C)c1ccccc1O,Potency,[1],active: 27.7 µM
same,Potency,[5],"inconclusive: 39.1 µM [cytotoxic, partial curve]"
same,Potency,[3],active: 34.9 µM
same,Potency,[7],"inconclusive: 24.7 µM [activator, full curve, poor fit]"
O=C(c1ccc(OCCN2CCCCC2)cc1)c1c(-c2ccc(O)cc2)sc2cc(O)ccc12,Potency,[1],"inconclusive: 26.8 µM [activator, single point]"
same,Potency,[5],"inconclusive: 23.9 µM [cytotoxic, single point]"
same,Potency,[3],"active: 21.9 µM and inconclusive: 23.9 µM [cytotoxic, single point]"
same,Potency,[8],"inconclusive: 61.7 µM [cytotoxic, partial curve, poor fit]"
same,Potency,[7],"inconclusive: 54.9 µM [activator, single point]"
same,Potency,[9],"inconclusive: 7.7 µM [cytotoxic, full curve, poor fit]"
CCCSS/C(CCO)=C(\C)N(C=O)Cc1cnc(C)nc1N,Potency,[1],"inconclusive: 26.8 µM [activator, single point]"
same,Potency,[5],"inconclusive: 26.8 µM [cytotoxic, single point]"
Cc1nc(-c2ccc3c(c2)CCN(CCC2CCC(NC(=O)/C=C/c4ccc(F)cc4)CC2)CC3)no1 (configuration not stated),Potency,[1],inactive
same,Potency,[5],"inconclusive: 0.618 µM [cytotoxic, full curve]"
same,Potency,[3],"inconclusive: 0.873 µM [cytotoxic, full curve]"
CC(C)(c1cc(Br)c(O)c(Br)c1)c1cc(Br)c(O)c(Br)c1,Potency,[1],"inconclusive: 54.8 µM [activator, single point] and inconclusive: 52 µM [activator, single point]"
same,Potency,[6],inactive
same,Potency,[7],"inconclusive: 52 µM [activator, single point]"
CC(C)(C)c1cccc(C(C)(C)C)c1O,Potency,[1],"inconclusive: 53.7 µM [activator, partial curve, poor fit]"
same,Potency,[3],active: 47.9 µM
same,Potency,[6],"inconclusive: 53.7 µM [activator, single point]"
CCCCCCCCCCCCc1ccccc1O,Potency,[1],"inconclusive: 48.3 µM [activator, partial curve]"
same,Potency,[6],active: 43.1 µM and active: 38.9 µM
same,Potency,[7],active: 21.9 µM
same,Potency,[9],inconclusive: 61.1 µM [cytotoxic]
